Screen size: about 410,000 compounds; about 6,400 (1.6%) were called active. This list was built around the results that the source calls inconclusive (neither active nor inactive); the mix of calls is not that of the screen. The call rests on the fitted dose curve; in most records, active means well fitted inhibition curve with a large enough effect; inconclusive means small, poorly fitted or top-dose-only effect; inactive means no such curve, though single readings can be large or run the other way. Potencies of inconclusive entries are left out as doubtful fits.
biological target: Glucagon-like peptide 1 receptor (Homo sapiens) (UniProt P43220); assay: qHTS of GLP-1 Receptor Inverse Agonists (Inhibition Mode); details: HEK293 GLP-1R CRE-luciferase, luminescence, 24 h, GLP-1R form is constitutively active; activity change, negative = inhibition: at 38.3 µM (top of the series) unless noted; further: nearly all actives have a fitted effect of over 55% in size
Sequence of UniProt P43220 (P43220 whole entry, looked up): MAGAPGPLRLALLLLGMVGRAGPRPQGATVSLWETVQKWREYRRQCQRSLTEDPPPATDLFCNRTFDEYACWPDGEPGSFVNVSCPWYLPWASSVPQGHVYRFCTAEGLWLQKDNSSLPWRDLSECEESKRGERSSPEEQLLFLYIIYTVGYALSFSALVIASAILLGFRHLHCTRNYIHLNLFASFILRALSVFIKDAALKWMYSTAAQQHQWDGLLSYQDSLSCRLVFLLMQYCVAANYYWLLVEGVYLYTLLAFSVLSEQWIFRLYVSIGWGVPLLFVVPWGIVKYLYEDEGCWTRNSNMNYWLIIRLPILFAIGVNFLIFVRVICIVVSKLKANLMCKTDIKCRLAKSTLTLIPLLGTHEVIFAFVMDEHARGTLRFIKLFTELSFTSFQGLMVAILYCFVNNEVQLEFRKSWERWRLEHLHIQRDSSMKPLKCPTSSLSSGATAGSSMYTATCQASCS
Procedure, shortened: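 Assay principle: reduced luminescence from a cAMP-responsive reporter in HEK293 cells co-expressing a constitutively active GLP-1R. Conditions: 24 hr compound incubation, 37 deg C, 5% CO2.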
On the % scale 0 is the no-effect control and ±100 the full control effect; potency means the concentration at half of the fitted maximal effect; tags describe the fitted curve by direction and shape.

| Compound | Potency | activity change, negative = inhibition |
| --- | --- | --- |
| Cc1oc2c(cc(NS(=O)(=O)c3ccc(F)cc3)c3ccccc32)c1C(=O)OCc1ccccc1 | inconclusive [inhibitor, single point] |  |
| COc1cc(C(=O)NNC(=O)c2ccc3ccccc3n2)cc(OC)c1OC | inconclusive [inhibitor, single point] |  |
| COc1ccc2c(CC(=O)Nc3ccc(OC)c(NS(=O)(=O)c4ccc(F)cc4)c3)coc2c1 | inconclusive [inhibitor, partial curve, poor fit] |  |
| NC(=O)Nc1ccc(C(=O)OCC(=O)NC2CCCc3ccccc32)cc1 (stereo not given) | inconclusive [inhibitor, single point] |  |
| Clc1ncnc2scc(-c3ccc(Br)cc3)c12 | inconclusive [inhibitor, single point] |  |
| Cc1cc(C)c(OCC(=O)N/N=C/c2ccco2)c(C)c1 | inconclusive [inhibitor, partial curve, poor fit] |  |
| CCCOC(=O)c1ccc(Nc2c(C(=O)OCC)cnc3c(C)cc(Cl)cc23)cc1 | inactive |  |
| Fc1ccc(C2=CC(c3ccc(Br)o3)n3ncnc3N2)cc1 (stereo not given) | inactive |  |
| Cc1cc(/C=N/NC(=O)CC2(C)OCCO2)c(C)n1-c1ccc(Cl)c(Cl)c1 | inconclusive [inhibitor, full curve] |  |
| COc1cccc(/C=N/NC(=O)c2cc(-c3ccccn3)nc3ccccc23)c1O | active: 5.01 µM |  |
| COc1ccc(CNC(=O)c2cc(-c3ccncc3)nc3c(C)cc(C)cc23)cc1OC | inconclusive [inhibitor, single point] |  |
| CSc1nnc(-c2sccc2OCc2ccc(C)cc2)n1C | inconclusive [inhibitor, single point] |  |
| COc1cc(OC)c2c(-c3ccccc3)cc(C3CCCCC3)nc2c1 | inconclusive [inhibitor, partial curve] |  |
| Cc1nc2ccccc2c(-c2ccccc2)c1CC(=O)O |  | inconclusive: -33.8% [inhibitor] |
| Cc1cccc(C)c1NC(=O)CN1C(=O)c2ccccc2Sc2ncccc21 | inactive |  |
| Fc1ccc(NC(=S)Nc2ccccc2OC(F)F)cc1Cl | inconclusive [inhibitor, partial curve] |  |
| Cc1ccccc1Nc1scc(-c2ccc(Br)cc2)[n+]1-c1ccccc1C | inconclusive [inhibitor, full curve] |  |
| Nc1c(C(=O)Nc2ccccc2)sc2nc(-c3ccco3)ccc12 | inactive |  |
| COc1ccc(C(=O)C2CCCN(C(=O)CCc3scnc3C)C2)c(C)c1 (stereo not given) | inconclusive [inhibitor, partial curve] |  |
| Cc1cccc(/C=C2\Sc3ccc(C(=O)N4CCC(C(N)=O)CC4)cc3N(C)C2=O)c1 | inconclusive [inhibitor, partial curve, poor fit] |  |
| O=C(c1ccc2c(=O)n(Cc3ccco3)c(=S)[nH]c2c1)N1CCN(Cc2ccccc2)CC1 | inconclusive [inhibitor, single point] |  |
| O=C(O)CSCC(=O)N1N=C2/C(=C/c3ccccc3)CCCC2C1c1ccccc1 (stereo not given) | inconclusive [inhibitor, partial curve, poor fit] |  |

| Compound | Potency | activity change, negative = inhibition |
| --- | --- | --- |
| C=CCC[C@H](Cc1ccc(F)cc1)C(=O)OC[C@@H](NC(=O)[C@H](CC=C)CC(=O)NCCO)c1ccccc1 | inconclusive [inhibitor, partial curve, poor fit] |  |
| O=c1oc2ccccc2cc1-c1nnc(-c2cccc(Br)c2)o1 | inactive |  |
| CCc1cnc2c(c1SCCC(C)C)c(=O)n(C)c(=O)n2C | inactive |  |
| CCCc1c(-c2ccc(F)cc2F)ncn1Cc1cccc(-c2ccccc2)c1 | inconclusive [inhibitor, partial curve, poor fit] |  |
| CCCN1CCN(C2CCCCC2NS(=O)(=O)c2ccc(Cl)cc2)CC1 (stereo not given) | inconclusive [inhibitor, single point] |  |
| Cc1ccc(C(C(=O)NC2CCCCC2)N(C(=O)c2csnn2)c2ccccc2F)o1 (stereo not given) | inconclusive [inhibitor, single point] |  |
| CCOc1ccc(-n2cc(-c3ccccc3)c3c(=S)nc[nH]c32)cc1 | inconclusive [inhibitor, single point] |  |
| Cc1ccc2cc3cc(C(=O)N(C)c4ccccc4C)oc3nc2c1 | inconclusive [inhibitor, single point] |  |
| NC(=O)CSc1nnc(-c2ccc3c(c2)OCO3)o1 | inconclusive [inhibitor, single point] |  |
| Cc1ccc(/C=N/NC(=O)c2ccc(Br)o2)s1 | inactive |  |
| NS(=O)(=O)c1ccc(NCCCn2ccnc2)c([N+](=O)[O-])c1 | inactive |  |
| CC(C)C(c1nnnn1C1CCCCC1)N1CCc2ccccc21 (stereo not given) | inconclusive [inhibitor, single point] |  |
| COc1ccc(Nc2cc(C(=O)NCCCN3CCN(C)CC3)c3ccccc3n2)cc1 | inconclusive [inhibitor, partial curve, poor fit] |  |
| Cc1ccc(NC(=O)c2ccc(NS(=O)(=O)c3c(C)noc3C)cc2)cc1C | inconclusive [inhibitor, partial curve] |  |
| CC(=O)c1cccc(NC(=O)CSc2nc3c(=O)n(C)c(=O)n(C)c3n2C)c1 | inactive |  |
| COc1ccc2oc(C(=O)OC(C)C(=O)N3C(C)CCCC3C)c(C)c2c1 (stereo not given) | inconclusive [inhibitor, partial curve, poor fit] |  |
| CC(=O)O/N=C1\C(=O)N(Cc2ccc(C)cc2)c2ccccc21 | inconclusive [inhibitor, partial curve] |  |
| Cc1cccc(-n2cnc3cc(C(=O)NC4CCCCCC4)ccc32)c1 | inconclusive [inhibitor, partial curve, poor fit] |  |
| CC(C)CCn1c(=O)c2sccc2n2c(CCCC(=O)NC(C)c3ccccc3)nnc12 (stereo not given) | inactive |  |
| Cc1cccc(OCC(=O)Nc2ccccc2C(=O)OCc2cc(=O)n3nc(C4CC4)sc3n2)c1 | inactive |  |
| Cc1ccsc1C(C(=O)NC1CCCCC1)N(C(=O)Cc1cccs1)C1CC1 (stereo not given) | inconclusive [inhibitor, partial curve, poor fit] |  |
| O=C(N/N=C/c1ccc(O)cc1O)c1ccc(CN2C(=O)c3cccc4cccc2c34)cc1 | inconclusive [inhibitor, full curve, poor fit] |  |

| Compound | Potency | activity change, negative = inhibition |
| --- | --- | --- |
| CC(C)CN(CC(C)C)C(=O)Nc1cccc([N+](=O)[O-])c1 | inconclusive [inhibitor, full curve, poor fit] |  |
| OC(CNCC1COc2ccccc2O1)COc1ccc(Cl)cc1 (stereo not given) | inconclusive [inhibitor, single point] |  |
| Cc1ccc(NC(=O)c2cccc(S(=O)(=O)N3CCN(C)CC3)c2)cc1F | inconclusive [inhibitor, partial curve, poor fit] |  |
| Nc1ccc2oc(Cc3ccc(Cl)cc3)nc2c1 | inactive |  |
| COc1ccc(C)cc1NC(=O)Cc1c(C(=O)O)c(C)cn1C | inactive |  |
| Cc1ccc(S(=O)(=O)N2CCN(C(=O)c3ccccc3OCc3c(C)noc3C)CC2)cc1 | inconclusive [inhibitor, partial curve, poor fit] |  |
| O=C(COc1ccc(S(=O)(=O)NC2CCCCC2)cc1Cl)Nc1ccc2c(c1)OCO2 | inconclusive [inhibitor, single point] |  |
| CCCCC(O)(CCCC)C(=O)N/N=C(\C)c1ccc(Cl)cc1 | inconclusive [inhibitor, single point] |  |
| Cc1ccccc1NC1c2ccccc2C(=O)N1Cc1ccco1 (stereo not given) | inconclusive [inhibitor, partial curve, poor fit] |  |
| COc1ccc(CN(C)C(C)C(=O)Nc2ccc(S(=O)(=O)N3CCCCC3)cc2)cc1F (stereo not given) | inconclusive [inhibitor, single point] |  |
| Cc1ccc(OCCC(=O)NNC(=O)c2nn(C)c(=O)c3ccccc23)cc1 | inactive |  |
| O=C(Nc1ccccc1)Nc1cc(OCC(F)(F)F)cc(OCC(F)(F)F)c1 | active: 2.82 µM |  |
| O=C1N(CC(=O)N2CCc3ccccc32)CCN1Cc1ccc(Cl)cc1 | inconclusive [inhibitor, partial curve, poor fit] |  |
| O=S(=O)(c1ccccc1)N1CN(c2ccc(F)cc2F)c2nc3ccccc3nc21 | inconclusive [inhibitor, partial curve, poor fit] |  |
| N/C(=N\OC(=O)c1cccc(Cn2cc(C(F)(F)F)ccc2=O)c1)c1ccc(Cl)cc1 | inconclusive [inhibitor, single point] |  |
| CC(C)NC(=S)N/N=C/c1ccc(C(C)(C)C)cc1 | inconclusive [inhibitor, single point] |  |
| Cc1ccccc1OCC(=O)N/N=C/c1ccc2c(c1)OCCO2 | inconclusive [inhibitor, single point] |  |
| CCCCNC(=O)c1ccc2c(c1)NC(=O)C(CS(=O)(=O)Cc1ccc(F)cc1Cl)N2 (stereo not given) | inactive |  |
| Cc1cc2nc(-c3ccc(SCc4ccccc4C#N)nc3)[nH]c2cc1C | inconclusive [inhibitor, partial curve, poor fit] |  |
| Cc1ccc(C)c(S(=O)(=O)N2CCCOC2CNC(=O)C(=O)NCc2cccs2)c1 (stereo not given) | inconclusive [inhibitor, single point] |  |
| COc1cccc(NC(=O)CCN2CCN(CCO)CC2)c1 | inactive |  |

— PubChem BioAssay AID624417 (National Center for Advancing Translational Sciences (NCATS), 2012)
